Among all 310,000 compounds or so, about 2,200 (0.71%) showed an effect of 50% or more. The effect is printed as a negative number. The list shows a part of the results. Where a SMILES comes first, the peptide text is derived from it. The star is where a group is joined. OBn = c1ccc(CO*)cc1
Each compound was assayed against human ether-à-go-go-related gene (hERG) potassium channel (human, UniProt Q12809) (assay: primary screen, population patch clamp on CHO cells stably expressing hERG).
Sequence of human ether-à-go-go-related gene (hERG) potassium channel (Q12809 whole entry, looked up): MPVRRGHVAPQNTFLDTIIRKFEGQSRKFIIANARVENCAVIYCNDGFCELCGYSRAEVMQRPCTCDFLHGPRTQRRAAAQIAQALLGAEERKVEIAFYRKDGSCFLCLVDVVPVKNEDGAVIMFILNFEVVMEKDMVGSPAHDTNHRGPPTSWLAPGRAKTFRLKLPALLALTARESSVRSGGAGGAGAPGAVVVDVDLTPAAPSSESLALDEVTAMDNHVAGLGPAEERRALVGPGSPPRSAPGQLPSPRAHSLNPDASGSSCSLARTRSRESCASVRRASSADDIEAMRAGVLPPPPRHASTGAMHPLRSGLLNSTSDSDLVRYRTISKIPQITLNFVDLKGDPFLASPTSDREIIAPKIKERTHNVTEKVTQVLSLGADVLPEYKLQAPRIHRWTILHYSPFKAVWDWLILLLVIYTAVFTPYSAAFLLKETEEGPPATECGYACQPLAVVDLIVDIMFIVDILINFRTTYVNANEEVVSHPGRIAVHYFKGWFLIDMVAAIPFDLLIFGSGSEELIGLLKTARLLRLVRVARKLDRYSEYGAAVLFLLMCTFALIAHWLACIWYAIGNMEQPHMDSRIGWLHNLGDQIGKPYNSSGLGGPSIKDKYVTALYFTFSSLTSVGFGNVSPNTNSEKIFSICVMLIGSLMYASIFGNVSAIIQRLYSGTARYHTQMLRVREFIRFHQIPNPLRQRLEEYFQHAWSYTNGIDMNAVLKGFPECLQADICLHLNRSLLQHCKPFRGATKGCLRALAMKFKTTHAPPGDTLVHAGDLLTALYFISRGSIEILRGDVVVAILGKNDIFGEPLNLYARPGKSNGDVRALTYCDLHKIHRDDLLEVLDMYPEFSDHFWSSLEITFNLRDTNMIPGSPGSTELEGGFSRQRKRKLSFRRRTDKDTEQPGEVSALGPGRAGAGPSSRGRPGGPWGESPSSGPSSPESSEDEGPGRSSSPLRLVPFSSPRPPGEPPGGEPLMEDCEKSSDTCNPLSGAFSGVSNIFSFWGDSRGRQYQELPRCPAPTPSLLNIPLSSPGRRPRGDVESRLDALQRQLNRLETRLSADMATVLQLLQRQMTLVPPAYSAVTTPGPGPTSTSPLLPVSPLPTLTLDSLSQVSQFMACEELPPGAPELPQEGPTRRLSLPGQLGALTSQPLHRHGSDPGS

SMILES	hERG current change (%, negative = inhibition) at 1uM
CCC(C)C(NC(=O)C(N)CC(C)C)C(=O)NC(CCC(=O)OCc1ccccc1)C(N)=O.Cl (stereo not drawn) (H-Leu-Ile-Glu(OBn)-NH2; configuration not given here)	7.77%
COc1ccc(C(CNC(=O)c2ccc(S(=O)(=O)Nc3ccccc3F)cc2)N(C)C)cc1 (stereo not shown)	19.7%
Cc1[nH]n(-c2ccccc2)c(=O)c1S(=O)(=O)c1ccccc1	-0.0408%
COc1ccc(Cl)cc1N1CC(C(=O)Nc2nccs2)CC1=O (stereo not shown)	5.55%
CCc1nc2ccccc2n1CC(=O)OCC(=O)N(CC(C)C)c1c(N)n(Cc2ccccc2)c(=O)[nH]c1=O	0.13%
COc1ccc(-c2nsc(SCC(=O)NCc3ccc4c(c3)OCO4)n2)cc1	12.6%
O=C(OCc1cc(=O)n2ccsc2n1)C1(c2ccc(Cl)cc2)CC1	-0.103%
Cc1ccc2c(COC(=O)c3c(C)noc3C)cc(=O)oc2c1	-3.33%
COc1ccc(Cc2noc(CN3CCCN(Cc4ccc(F)cc4)CC3)n2)cc1OC	-15.2%
O=C1NC(=O)/C(=C/c2ccccc2OCc2ccccc2)S1	14.8%
CNCc1cc(Br)c(OCC(=O)Nc2ccccc2OC)c(OC)c1.Cl	-4.94%
CCOC(=O)c1c(NC(=O)CSc2nnnn2C)sc(C)c1-c1ccc(C)cc1	-0.63%
COC(=O)CSc1nc2cc3c(cc2cc1C)OCCO3	16.6%
Cc1cc2c(cc1C)-c1nnc(-c3ccc4ccccc4n3)n1C(C)(C)C2	7.42%
O=C(NCCc1ccccc1)c1cccc2c1C(=O)N(C1CCCCC1)C2	12.9%
Cc1cc(C)cc(N(CC(=O)NC2CCCC2)C(=O)c2csnn2)c1	11.3%
CCCCn1c(N)c(N(CCOC)C(=O)COC(=O)Cc2cccc(OC)c2)c(=O)[nH]c1=O	-5.81%
O=C(CN1C(=O)/C(=C\c2ccc(F)cc2)Oc2ccccc21)N1CCN(c2ccccn2)CC1	-4.25%
CCn1c(C)c(C(C)=O)c(N2CCN(c3ccccn3)CC2)nc1=S	-0.742%
CCn1c(=O)c(CCC(=O)NCC2CCCO2)c(C)c2c(C)nn(-c3ccccc3)c21 (stereo not shown)	11.9%
COCCNC(=O)c1cc2cc(Cl)cc(Cl)c2oc1=O	9.36%
Cc1cccc(C)c1OCc1nnc(SCC(=O)Nc2cccc(C(=O)N3CCOCC3)c2)n1C	7%

SMILES	hERG current change (%, negative = inhibition) at 1uM
O=C(NCc1ccccn1)c1ccccc1Cl	2.33%
CCOC(=O)C1CCN(C(=O)c2ccc(SC)cc2OC)CC1	1.63%
CN(c1ccccc1)S(=O)(=O)c1ccc(C(=O)OCC(=O)NC(N)=O)cc1	14.1%
Cc1ccc(S(=O)(=O)CCC(=O)Nc2nnc(CC(C)C)s2)cc1	-0.707%
O=C(OCc1ccccc1)/C(=C(\O)c1ccccc1Br)c1ccc(-c2ccccc2)cn1	2.98%
CSc1nnc(-c2cnccn2)n1Cc1ccccc1	14.2%
Cc1nn(Cc2ccccc2)c(Cl)c1C(=O)O	19%
Cn1c(=O)oc2cc(S(=O)(=O)Nc3ccccc3O)ccc21	11.1%
O=C(Cn1nnc(-c2ccc(S(=O)(=O)N3CCCC3)cc2)n1)NCC1CCCO1 (stereo not shown)	5.24%
NC(=O)C1CCCN(CC(=O)N2CCN(c3ccccc3)CC2)C1 (stereo not shown)	7.12%
COc1ccc(F)cc1S(=O)(=O)n1cc(C)nc1-c1ccccc1	8.52%
COc1ccc(C=C2C(=O)c3ccccc3C2=O)cc1O	11.8%
CC1CC(C)(C)NC(=S)N1CC(=O)N1CCN(Cc2ccc3c(c2)OCO3)CC1 (stereo not shown)	10.7%
Cc1ccccc1NS(=O)(=O)c1cc(C(N)=O)ccc1C	9.26%
O=c1[nH]c(=O)n(Cc2ccco2)c(O)c1C=NCc1ccco1	8.27%
OCC1CCCN(Cc2ccc(-c3ccccc3)cc2)C1 (stereo not shown)	1.59%
COc1cc(NC(=O)c2cc(C)nc3ccccc23)cc(OC)c1	11.6%
O=C(O)CCCn1cc(NC(=O)c2c(F)cccc2F)cn1	11.9%
CC1Cc2ccccc2N1C(=O)COC(=O)C1(c2ccccc2F)CCCC1 (stereo not shown)	-0.43%
CC(C)(C)NC(=O)CN1CCN(C(=O)CCl)CC1.Cl	13.6%
CN(C(=O)CCN1C(=O)C2C3C=CC(C3)C2C1=O)c1ccccc1 (stereo not shown)	4.4%
